Among all 150,000 compounds or so, about 540 (0.36%) showed an effect of 50% or more. Some of the results follow.
System: Plasmodium falciparum
Test: Primary screen in NF54 nanoGlo assay, in single point, at 2uM, 72h; a lower Z score goes with more inhibition
Assay type: functional, Erythrocyte
Conditions: timepoint 72 hour

First: CCC(=O)N1CCC(NC(=O)NC2c3cccc(F)c3CCC2C)C1 (centres undefined)
Second: COc1cccc(C2C(NC(C)=O)CCN2C2CC2)c1 (centres undefined)
The “% Inhibition” value of the first is lower: 2% for the first, 12% for the second.

First: CCC(NC(=O)C(CC(C)C)n1ccnc1)C(O)C(C)C (centres undefined)
Second: CC(C)C[C@H]1C(=O)NCCCN1C(=O)c1ccn(C(C)C)n1
The “% Inhibition” value of the first is higher: 19% for the first, -1% for the second.

First: O=C(NCC1(CO)CC1)c1sccc1Cl
Second: O=C(Cc1ccsc1)NC1(c2cccs2)CCOCC1
The “% Inhibition” value of the first is lower: 0% for the first, 1% for the second.

Compared with `COCCO[C@H]1CCC12CCN(S(=O)(=O)c1c(C)noc1C)CC2`, `Cc1nn(-c2ccc(F)cc2)c(C)c1S(=O)(=O)N1CCC(C(=O)NC[C@H]2CCCO2)CC1` is higher in “% Inhibition” value: 3% for the first, 7% for the second.

Going from `COCCN(Cc1nnc(C)o1)CC(F)(F)F` to `CC1CN(C)CCC1N(C)C(=O)CCOCC(F)(F)F` (centres undefined), the “% Inhibition” value falls from -4% to -5%.

First: O=C1NCC(=O)N2CCN(CC(c3ccccc3)c3ccccc3)C[C@@H]12
Second: FC(F)n1ccnc1CN1CCN([C@H]2CCCCc3ccccc32)CC1
The “% Inhibition” value of the first is lower: -6% for the first, 6% for the second.

Going from `COC(=O)[C@@H]1CC(F)(F)CN1C(=O)OC(C)(C)C` to `CC(C)(C)[C@H]1CCCN(C(=O)c2cncnc2)CC1`, the “% Inhibition” value falls from 11% to -10%.

First: Cc1noc(C)c1CN(C)C1CCCCC1N(C)Cc1c(C)noc1C (centres undefined)
Second: Cc1noc(C2(NC(=O)Cc3ccccc3C)CCCCC2)n1
The “% Inhibition” value of the first is higher: -7% for the first, -12% for the second.

First: O=C(c1ccc(Cl)cc1)c1c[nH]c2c(F)cc(F)cc2c1=O
Second: O=C(O)[C@H](Cc1ccccn1)c1ccc(Cl)cc1
The “% Inhibition” value of the first is higher: 36% for the first, -1% for the second.

First: CC(C)C(NC1CC(C)N(C2CC2)C1)c1ccccc1 (centres undefined)
Second: CN1CCOC(CNCC(O)c2ccccc2Cl)C1 (centres undefined)
The “% Inhibition” value of the first is lower: -4% for the first, 2% for the second.

Going from `O=C(O)[C@@H]1CCCCN1S(=O)(=O)CCc1cccc(Cl)c1` to `Cc1ccc(Cl)cc1S(=O)(=O)N1CCC[C@H](c2ccn(C)n2)C1`, the “% Inhibition” value rises from -14% to -1%.

First: Cc1nc(O)cc(CNS(=O)(=O)c2cccc(C(=O)NC3CCC3)c2)n1
Second: COc1ccccc1NC(=O)N1CC(c2nc(-c3ncccn3)no2)C1
The “% Inhibition” value of the first is lower: -3% for the first, 4% for the second.

First: COc1cc(C(=O)N2CCC[C@@H](N)C2)cc(Cl)c1OCCC(C)C
Second: CCOC(=O)N1CCN(C(=O)[C@H]2CCCN(c3nc(C)cc(C)n3)C2)CC1
The “% Inhibition” value of the first is lower: -9% for the first, -3% for the second.

First: CCCc1cc(NCc2cnn(C)c2)n2ncnc2n1
Second: Cc1cc(CN(C)c2ncncc2Br)no1
The “% Inhibition” value of the first is higher: 0% for the first, -6% for the second.

Going from `CC(C)n1ncc2c1[C@@H](NCc1cccnc1N(C)C)CCC2` to `CCc1cc(-c2cccc(-c3ccn(CCO)n3)c2)nc(N(C)C)n1`, the “% Inhibition” value falls from -9% to -10%.

Going from `COc1ccc(NC(=O)CC[C@@H]2CN(Cc3ccccc3)CC[C@@H]2N2CCOCC2)cc1` to `COc1cc(CN2C[C@@H](CO)[C@H](NC(=O)c3ccncc3)C2)ccc1F`, the “% Inhibition” value falls from -3% to -7%.

Going from `C[C@@H](Cn1cncn1)Nc1nccn(C)c1=O` to `Cc1nc(-c2cnn(C)c2)sc1C(=O)N[C@@H](C)COCC(C)C`, the “% Inhibition” value rises from -13% to -9%.

Compared with `N#CCn1ccc(NC(=O)N2C3CCC2CC2(CC2)C3)n1`, `O=C(Nc1ccnn1C1CCS(=O)(=O)C1)C1CC=CCC1` (centres undefined) is lower in “% Inhibition” value: -4% for the first, -11% for the second.

Compared with `O=C(NC[C@]12C[C@H]1COC21CCC1)c1ncoc1-c1ccon1`, `COCCCNC(=O)CN(C)c1nc2c(s1)c(C)nn2-c1ccc(OC)cc1` is lower in “% Inhibition” value: 5% for the first, -2% for the second.

Compared with `CCOC(=O)c1cc(-c2cccc(NC(=O)c3cc(C)nn3C)c2)n(-c2cccc(C)c2)n1`, `CCOc1ccccc1N(CC(=O)Nc1ccc(S(=O)(=O)Nc2cccc(Cl)c2Cl)cc1)S(=O)(=O)c1ccc(C)cc1` is lower in “% Inhibition” value: -1% for the first, -16% for the second.

Going from `Cc1cc(-c2nc(C3CCOCC3C)no2)n[nH]1` (centres undefined) to `N#Cc1ccccc1OCCOCc1ncc[nH]1`, the “% Inhibition” value falls from -3% to -13%.

Going from `CCC(=O)N1CCC(NC(=O)NC2c3cccc(F)c3CCC2C)C1` (centres undefined) to `COc1cccc(C2C(NC(C)=O)CCN2C2CC2)c1` (centres undefined), the Z score falls from -0.24 to -1.21.

Going from `CCC(NC(=O)C(CC(C)C)n1ccnc1)C(O)C(C)C` (centres undefined) to `CC(C)C[C@H]1C(=O)NCCCN1C(=O)c1ccn(C(C)C)n1`, the Z score rises from -2.43 to 0.18.

Compared with `O=C(NCC1(CO)CC1)c1sccc1Cl`, `O=C(Cc1ccsc1)NC1(c2cccs2)CCOCC1` is lower in Z score: 0.01 for the first, -0.13 for the second.

Going from `COCCO[C@H]1CCC12CCN(S(=O)(=O)c1c(C)noc1C)CC2` to `Cc1nn(-c2ccc(F)cc2)c(C)c1S(=O)(=O)N1CCC(C(=O)NC[C@H]2CCCO2)CC1`, the Z score falls from -0.36 to -1.02.

Compared with `COCCN(Cc1nnc(C)o1)CC(F)(F)F`, `CC1CN(C)CCC1N(C)C(=O)CCOCC(F)(F)F` (centres undefined) is lower in Z score: 0.65 for the first, 0.62 for the second.

Going from `O=C1NCC(=O)N2CCN(CC(c3ccccc3)c3ccccc3)C[C@@H]12` to `FC(F)n1ccnc1CN1CCN([C@H]2CCCCc3ccccc32)CC1`, the Z score falls from 0.99 to -0.74.

First: COC(=O)[C@@H]1CC(F)(F)CN1C(=O)OC(C)(C)C
Second: CC(C)(C)[C@H]1CCCN(C(=O)c2cncnc2)CC1
The Z score of the first is lower: -1.25 for the first, 1.91 for the second.

Compared with `Cc1noc(C)c1CN(C)C1CCCCC1N(C)Cc1c(C)noc1C` (centres undefined), `Cc1noc(C2(NC(=O)Cc3ccccc3C)CCCCC2)n1` is lower in Z score: 1.24 for the first, 1.22 for the second.

Compared with `O=C(c1ccc(Cl)cc1)c1c[nH]c2c(F)cc(F)cc2c1=O`, `O=C(O)[C@H](Cc1ccccn1)c1ccc(Cl)cc1` is higher in Z score: -4.88 for the first, 0.17 for the second.

Compared with `CC(C)C(NC1CC(C)N(C2CC2)C1)c1ccccc1` (centres undefined), `CN1CCOC(CNCC(O)c2ccccc2Cl)C1` (centres undefined) is lower in Z score: 0.44 for the first, -0.32 for the second.

Compared with `O=C(O)[C@@H]1CCCCN1S(=O)(=O)CCc1cccc(Cl)c1`, `Cc1ccc(Cl)cc1S(=O)(=O)N1CCC[C@H](c2ccn(C)n2)C1` is lower in Z score: 1.68 for the first, 0.15 for the second.

Going from `Cc1nc(O)cc(CNS(=O)(=O)c2cccc(C(=O)NC3CCC3)c2)n1` to `COc1ccccc1NC(=O)N1CC(c2nc(-c3ncccn3)no2)C1`, the Z score falls from 0.41 to -0.71.

Going from `COc1cc(C(=O)N2CCC[C@@H](N)C2)cc(Cl)c1OCCC(C)C` to `CCOC(=O)N1CCN(C(=O)[C@H]2CCCN(c3nc(C)cc(C)n3)C2)CC1`, the Z score falls from 1.45 to 0.36.

First: CCCc1cc(NCc2cnn(C)c2)n2ncnc2n1
Second: Cc1cc(CN(C)c2ncncc2Br)no1
The Z score of the first is lower: -0.06 for the first, 0.73 for the second.

First: CC(C)n1ncc2c1[C@@H](NCc1cccnc1N(C)C)CCC2
Second: CCc1cc(-c2cccc(-c3ccn(CCO)n3)c2)nc(N(C)C)n1
The Z score of the first is lower: 1.11 for the first, 1.37 for the second.

First: COc1ccc(NC(=O)CC[C@@H]2CN(Cc3ccccc3)CC[C@@H]2N2CCOCC2)cc1
Second: COc1cc(CN2C[C@@H](CO)[C@H](NC(=O)c3ccncc3)C2)ccc1F
The Z score of the first is lower: 0.66 for the first, 1.2 for the second.

Compared with `C[C@@H](Cn1cncn1)Nc1nccn(C)c1=O`, `Cc1nc(-c2cnn(C)c2)sc1C(=O)N[C@@H](C)COCC(C)C` is higher in Z score: 1.16 for the first, 1.28 for the second.

Going from `N#CCn1ccc(NC(=O)N2C3CCC2CC2(CC2)C3)n1` to `O=C(Nc1ccnn1C1CCS(=O)(=O)C1)C1CC=CCC1` (centres undefined), the Z score rises from 0.64 to 1.12.

Going from `O=C(NC[C@]12C[C@H]1COC21CCC1)c1ncoc1-c1ccon1` to `COCCCNC(=O)CN(C)c1nc2c(s1)c(C)nn2-c1ccc(OC)cc1`, the Z score rises from -0.99 to 0.29.

Going from `CCOC(=O)c1cc(-c2cccc(NC(=O)c3cc(C)nn3C)c2)n(-c2cccc(C)c2)n1` to `CCOc1ccccc1N(CC(=O)Nc1ccc(S(=O)(=O)Nc2cccc(Cl)c2Cl)cc1)S(=O)(=O)c1ccc(C)cc1`, the Z score rises from 0.15 to 1.99.

Going from `Cc1cc(-c2nc(C3CCOCC3C)no2)n[nH]1` (centres undefined) to `N#Cc1ccccc1OCCOCc1ncc[nH]1`, the Z score rises from 0.54 to 1.41.

Reference: ChEMBL document CHEMBL4888484, “Replenishing the malaria drug discovery pipeline: Screening and hit evaluation of the MMV Hit Generation Library 1 (HGL1) against asexual blood stage Plasmodium falciparum ,using a nano luciferase reporter read-out” (2022)
